What was measured:
[1] = test system: HIV clinical isolate A018-H112-2; experiment: HIV drug susceptibility assay in R3/X4/R5 cells, pre-AZT clinical isolate; type: cell-based; settings: judged from IC50; pre-AZT isolate
[2] = test system: HIV clinical isolate A018-G910-6; experiment: microbe, parasite or virus in culture; type: cell-based; settings: judged from IC50; post-AZT isolate
[3] = test system: HIV clinical isolate 93000016; experiment: HIV drug susceptibility assay in R3/X4/R5 cells, clinical isolate 93000016; settings: judged from IC50
HIVIIIB = experiment: HIV drug susceptibility assay in R3/X4/R5 cells, GFP by flow cytometry, cell free HIVIIIB; type: cell-based; settings: for IC50: Human immunodeficiency virus 1, Table 2, 50% reduction of GFP expressing cells
[4] = test system: AZT susceptible HIV clinical isolate; experiment: HIV drug susceptibility assay in R3/X4/R5 cells, AZT susceptible clinical isolate; type: cell-based; settings: Human immunodeficiency virus 1; no-drug control 26.8% GFP expressing cells
[5] = test system: H9 cells chronically infected with HIVIIIB; experiment: Drug susceptibility assay with virus infected cells as source of HIV; type: cell-based; settings: 0.05 μM AZT; 48 hr; 71.4% in the absence of AZT
[6] = test system: HIV clinical isolate 93000029; experiment: HIV drug susceptibility assay in R3/X4/R5 cells, clinical isolate 93000029; settings: judged from IC50
[7] = test system: HIV clinical isolate 93000057; experiment: HIV drug susceptibility assay in R3/X4/R5 cells, clinical isolate 93000057; settings: judged from IC50

Row | Compound | susceptibility of the isolate to the drug (in words) [1] | susceptibility of the isolate to the drug (in words) [2] | susceptibility of the isolate to the drug (in words) [3] | IC50 (HIVIIIB) [nM] | further results
1 | CC(C)Nc1cccnc1N1CCN(C(=O)c2cc3cc(NS(C)(=O)=O)ccc3[nH]2)CC1 [DLV, Delavirdine] | sensitivity | sensitive | sensitivity |  | 
2 | O=C1Nc2ccc(Cl)cc2[C@@](C#CC2CC2)(C(F)(F)F)O1 [Efavirenz] |  |  |  | 1.56 | 
3 | Nc1nc(NC2CC2)c2ncn([C@H]3C=C[C@@H](CO)C3)c2n1.O=C(O)CCC(=O)O [ABC, Abacavir Succinate] | sensitivity | sensitive | sensitivity |  | 
4 | CC(C)CN(C[C@@H](O)[C@H](Cc1ccccc1)NC(=O)O[C@H]1CCOC1)S(=O)(=O)c1ccc(N)cc1 [Amprenavir] |  |  |  | 10.8 | 
5 | Cc1cn([C@H]2C[C@H](N=[N+]=[N-])[C@@H](CO)O2)c(=O)[nH]c1=O [AZT, Zidovudine] | sensitivity | resistant |  |  | % GFP + CELLS (HIVIIIB; AZT 10 μM, 48 hr, no-drug control 29.6%): 0.4%; IC50 [4]: 34 nM; % of the cells express GFP [5]: 35.1%; susceptibility of the isolate to the drug (in words) [6]: susceptible; susceptibility of the isolate to the drug (in words) [7]: susceptible
